Reference: PubChem BioAssay AID2147 (National Center for Advancing Translational Sciences (NCATS), 2009)
The whole screen tested about 230,000 compounds, of which about 3,600 (1.6%) were called active. Inconclusive means that the source gave no clear call. Such entries were picked first, then a sample of the others. Calls follow the shape of the dose curve; as a rule, active = well fitted inhibition curve with a large enough effect (not every such curve was filed as active); inconclusive = small, poorly fitted or top-dose-only effect, or another doubt; inactive = no such curve, though single readings can be large or run the other way. Potencies of inconclusive entries are doubtful fits and often do not repeat.

Target: Lysine-specific demethylase 4E (Homo sapiens) (UniProt B2RXH2)
Test: qHTS Assay for Inhibitors of Human Jumonji Domain Containing 2E (JMJD2E)
Settings: JMJD2E catalytic domain, FDH-coupled NADH fluorescence (FDH is formaldehyde dehydrogenase); series mostly up to 57.1 µM
Also: nearly all actives have a fitted effect of over 50% in size.
Potency is read from the fitted curve at half-maximal effect; tags tell the direction and shape of the fitted curve.

UniProt B2RXH2, sequence (B2RXH2 whole entry, looked up, the tested form may be a part): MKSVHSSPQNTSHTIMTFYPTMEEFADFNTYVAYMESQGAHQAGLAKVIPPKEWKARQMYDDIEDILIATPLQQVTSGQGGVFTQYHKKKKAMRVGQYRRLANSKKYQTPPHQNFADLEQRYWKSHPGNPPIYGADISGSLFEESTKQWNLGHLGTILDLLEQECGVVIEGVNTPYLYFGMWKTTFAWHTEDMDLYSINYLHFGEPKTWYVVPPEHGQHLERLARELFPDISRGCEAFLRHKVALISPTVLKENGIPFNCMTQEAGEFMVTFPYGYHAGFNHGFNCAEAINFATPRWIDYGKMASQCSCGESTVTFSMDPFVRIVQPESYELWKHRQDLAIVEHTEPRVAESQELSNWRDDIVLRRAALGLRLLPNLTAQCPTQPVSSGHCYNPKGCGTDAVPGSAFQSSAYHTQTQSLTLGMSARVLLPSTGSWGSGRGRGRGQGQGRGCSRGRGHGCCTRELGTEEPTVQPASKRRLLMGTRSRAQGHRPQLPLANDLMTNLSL

Row | SMILES | Potency
1 | CCc1c(C)nc2c(-c3ccccc3)c(C)nn2c1Nc1ccc(NC(C)=O)cc1 | inconclusive: 35.5 µM [inhibitor, single point]
2 | CSc1ccc(Cl)c(C(=O)OCC(=O)N2CC(C)OC(C)C2)c1 (centres undefined) | inconclusive: 31.6 µM [inhibitor, partial curve]
3 | COc1ccc(-c2csc(NC(=S)NC(=O)/C=C/c3ccco3)n2)cc1Br | inactive
4 | Cc1ccc(OCCOCCN(C)C)c(Cl)c1 | inconclusive: 6.31 µM [inhibitor, single point]
5 | Cc1nc2nc(NCc3cccs3)nn2c(C)c1Cl | inconclusive: 28.2 µM [inhibitor, partial curve]
6 | N#CC(=C=[N-])C1=C(C#N)C(c2ccccc2F)C([n+]2ccccc2)C(O)(C2CC2)N1 (centres undefined) | inconclusive: 39.8 µM [inhibitor, single point]
7 | CO/C=C\C=C/c1nnn(-c2ccc(Cl)cc2)n1 | active: 25.1 µM
8 | CN1CCN(c2ccnc(-c3ccccc3C(F)(F)F)n2)CC1 | inconclusive: 35.5 µM [inhibitor, single point]
9 | Cc1ccc2nc(NCC(N)=O)nc(-c3ccccc3)c2c1 | inconclusive: 28.2 µM [inhibitor, partial curve]
10 | O=C(O)CCSCC(=O)c1ccc2c(c1)OCCO2 | inactive
11 | O=C(N/N=C/c1ccc(N2CCOCC2)cc1)c1ccc(O)cc1 | inconclusive: 31.6 µM [inhibitor, partial curve]
12 | Cc1ccc2cccc(S(=O)(=O)N3CCN(c4cccc(Cl)c4)CC3)c2n1 | inconclusive: 39.8 µM [inhibitor, single point]
13 | COc1ccc(S(=O)(=O)NNC(=O)c2sccc2-n2cccc2)cc1 | inactive
14 | COc1ccc(Br)cc1C(=O)Nc1cccc2ncccc12 | inconclusive: 35.5 µM [inhibitor, single point]
15 | COC/C=C/C1=CC2=CC(=O)C(C)(OC(=O)c3ccco3)C(=O)C2=CO1 (centres undefined) | inconclusive: 25.1 µM [inhibitor, single point]
16 | COc1ccc(-c2nc3ccccc3c(=O)n2CCOc2cc(C)ccc2C)cc1 | inconclusive: 28.2 µM [inhibitor, single point]
17 | COc1ccccc1COCC(O)CNCC1(N2CCCCC2)CCCCC1 (centres undefined) | inconclusive: 31.6 µM [inhibitor, single point]
18 | CCc1cc[n+](-c2nc3ccccc3nc2[N-]S(=O)(=O)c2ccc(Br)s2)cc1 | inactive
19 | COc1cccc(N2CC(=O)N(NC(=O)c3sc4nc(C)cc(C)c4c3N)CC2=O)c1 | inconclusive: 22.4 µM [inhibitor, partial curve]
20 | Cc1ccc(CN(C)C(=O)CC2C(=O)NCCN2CC2CCCCC2)cc1 (centres undefined) | inconclusive: 28.2 µM [inhibitor, single point]
21 | CCC1C(=O)c2ccccc2N(C)C1=O (centres undefined) | inconclusive: 22.4 µM [inhibitor, partial curve]
22 | COc1cc(COCC(O)CN2CCN(CCN3C(=O)c4cccc5cccc(c45)C3=O)CC2)cc(OC)c1OC (centres undefined) | inconclusive: 35.5 µM [inhibitor, single point]

Row | SMILES | Potency
23 | O=C(N/N=C/c1ccc(-c2cccc(C(F)(F)F)c2)o1)c1cccc(F)c1 | inconclusive: 31.6 µM [inhibitor, single point]
24 | CNS(=O)(=O)c1cccc(C(=O)OCC(=O)c2cc3ccccc3o2)c1 | inconclusive: 31.6 µM [inhibitor, single point]
25 | Cn1cccc1Cc1nnc(SCC(=O)Nc2cccc(F)c2)n1CCc1ccccc1 | inactive
26 | COC(=O)c1c(C(=O)OC)c2cc(C)ccn2c1Cl | inconclusive: 25.1 µM [inhibitor, partial curve]
27 | O=C(c1ccc2c(=O)n(CC3CCCO3)c(=S)[nH]c2c1)N1CCN(c2ccccc2)CC1 (centres undefined) | inactive
28 | COc1cccc(CCNC(=O)CC2C(=O)NCCN2Cc2ccc(Cl)c(F)c2)c1 (centres undefined) | inconclusive: 39.8 µM [inhibitor, single point]
29 | Cc1ccc(S(=O)(=O)N/N=C/c2c[nH]c3ccccc23)cc1 | inactive
30 | COc1cc2c(cc1NC(=O)COC(=O)[C@@H](NS(=O)(=O)c1ccccc1)C(C)C)oc1ccccc12 | inconclusive: 28.2 µM [inhibitor, single point]
31 | COc1ccccc1NC(=O)N1CCCC1 | inactive
32 | CCOC(=O)C1C2C=CC3(CN(Cc4ccccc4)C(=O)C13)O2 (centres undefined) | inactive
33 | Cn1c(C(=O)NC2CC2)cc(=O)n(C)c1=O | inconclusive: 39.8 µM [inhibitor, single point]
34 | CC(C)Oc1ccc(C(=O)N2CCCc3ccccc32)cc1 | inactive
35 | CCNC(=S)N/N=C/c1ccc(OCc2ccc(C(=O)OC)cc2)cc1 | inconclusive: 20 µM [inhibitor, partial curve]
36 | CCOC(=O)/C(=C/c1c(C)n(C)c2ccc([N+](=O)[O-])cc12)C(C)=O | inactive
37 | COc1ccc(/C=N/NC(=O)c2cccc(NC(=O)c3ccc(F)cc3)c2)c(C(=O)O)c1OC | inconclusive: 22.4 µM [inhibitor, partial curve]
38 | CN(CC1CCOCC1)C(=O)CC1C(=O)NCCN1Cc1cccc(Oc2ccccc2)c1 (centres undefined) | inconclusive: 20 µM [inhibitor, single point]
39 | COC(=O)c1c(NC(=O)c2ccccc2)sc(C(N)=O)c1C | inconclusive: 39.8 µM [inhibitor, single point]
40 | NC(=O)c1ccsc1NC(=O)c1ccc(S(=O)(=O)N2CCCCC2)cc1 | inconclusive: 35.5 µM [inhibitor, single point]
41 | COc1ccccc1CC(=O)Nc1cc2oc3ccccc3c2cc1OC | inconclusive: 35.5 µM [inhibitor, single point]
42 | COc1ccc(-n2c(=S)[nH]c3[nH]ncc3c2=O)cc1 | inactive
43 | COc1ccc(CCNC(=O)C2CC3Cn4c(nc5cc6ccccc6cc54)C3N2C)cc1 (centres undefined) | inconclusive: 8.91 µM [inhibitor, single point]
44 | Cn1c(-c2ccc(C(C)(C)C)cc2)n[nH]c1=S | inconclusive: 28.2 µM [inhibitor, single point]
